Here are results for 45 compounds from article PMC4336329 (PLoS ONE, 2015).

Hit rate of the full screen: of about 310,000 compounds, about 14,000 (4.5%) showed an effect of 50% or more. Effects have a minus sign here. Some of the results follow.
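Also: peak tail current of the secondary pulse compared with the same well before compound.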

Sequence of human ether-à-go-go-related gene (hERG) potassium channel (Q12809 whole entry, looked up): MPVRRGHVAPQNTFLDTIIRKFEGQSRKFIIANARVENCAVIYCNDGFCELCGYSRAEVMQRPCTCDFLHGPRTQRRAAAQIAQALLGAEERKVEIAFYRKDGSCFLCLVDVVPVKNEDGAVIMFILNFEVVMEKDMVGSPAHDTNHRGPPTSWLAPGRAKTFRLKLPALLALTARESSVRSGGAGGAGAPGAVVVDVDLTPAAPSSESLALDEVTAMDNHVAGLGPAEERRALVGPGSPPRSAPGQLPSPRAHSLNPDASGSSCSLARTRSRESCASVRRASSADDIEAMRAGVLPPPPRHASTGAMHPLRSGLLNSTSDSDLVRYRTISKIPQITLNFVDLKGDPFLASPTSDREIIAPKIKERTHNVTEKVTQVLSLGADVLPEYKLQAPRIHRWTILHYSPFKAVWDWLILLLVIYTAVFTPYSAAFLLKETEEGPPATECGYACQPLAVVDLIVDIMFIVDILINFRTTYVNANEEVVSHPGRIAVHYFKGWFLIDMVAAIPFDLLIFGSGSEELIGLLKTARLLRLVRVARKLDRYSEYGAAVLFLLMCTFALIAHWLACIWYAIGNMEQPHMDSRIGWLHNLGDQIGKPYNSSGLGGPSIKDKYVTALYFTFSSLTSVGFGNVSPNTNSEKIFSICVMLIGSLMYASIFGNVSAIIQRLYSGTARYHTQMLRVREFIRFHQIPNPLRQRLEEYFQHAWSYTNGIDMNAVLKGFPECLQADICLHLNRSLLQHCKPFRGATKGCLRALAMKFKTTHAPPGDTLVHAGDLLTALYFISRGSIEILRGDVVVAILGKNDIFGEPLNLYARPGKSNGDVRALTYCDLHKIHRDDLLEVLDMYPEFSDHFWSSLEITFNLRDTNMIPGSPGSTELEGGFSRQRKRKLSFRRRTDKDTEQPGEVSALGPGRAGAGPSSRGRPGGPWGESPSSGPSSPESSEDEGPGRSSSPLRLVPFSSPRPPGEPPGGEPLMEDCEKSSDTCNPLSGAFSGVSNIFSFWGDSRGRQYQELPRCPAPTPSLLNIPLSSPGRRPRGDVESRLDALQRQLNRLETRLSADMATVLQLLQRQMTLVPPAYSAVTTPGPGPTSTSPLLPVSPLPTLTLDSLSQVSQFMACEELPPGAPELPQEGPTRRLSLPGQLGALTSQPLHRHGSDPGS

The assay addresses human ether-à-go-go-related gene (hERG) potassium channel (human, UniProt Q12809). The experiment in a line: primary screen, population patch clamp on CHO cells stably expressing hERG.
Turning to `COc1ccc(NC(=O)Nc2sc(=S)n(C)c2C)cc1`, the “hERG current change (%, negative = inhibition) at 10uM” value was 4.52%.
As to `CCc1nc(NCCO)c(C#N)c2c1CSC(C)(C)C2`, the “hERG current change (%, negative = inhibition) at 10uM” value is listed as 19.8%.
Consider `CC/C(=N\NC(=O)c1cccnc1)c1ccc2c(c1)OCCO2`, for which the “hERG current change (%, negative = inhibition) at 10uM” value is -41.5%.
Consider `CCCn1c(C(O)c2ccc(OCC)cc2)nc2ccccc21` (stereo not drawn), for which the “hERG current change (%, negative = inhibition) at 10uM” value stood at 7.3%.
As to `Nc1ccc(N2CCN(C(=O)c3ccco3)CC2)cc1`, the “hERG current change (%, negative = inhibition) at 10uM” value amounted to 12.3%.
The figure for `Cc1ccc(Oc2ncccc2/C=N/O)cc1` is 4.33%; for `CC(=O)Nc1ccc(S(=O)(=O)Oc2ccccc2N2CCCCC2)cc1` it is -3.62%; for `NC(N)=NN=C1CCC(c2ccccc2)CC1` (stereo not drawn) it is 14.4%.
With `c1coc(CNc2ncnc3[nH]ncc23)c1`, the “hERG current change (%, negative = inhibition) at 10uM” value was determined as 15.3%.
For `Cc1ccnc(NS(=O)(=O)c2ccccc2)c1`, the “hERG current change (%, negative = inhibition) at 10uM” value is on record as 15.2%.
As to `COc1cc(NC(=O)C2CSC3(C)CCC(=O)N23)c(OC)cc1Cl` (stereo not drawn), the “hERG current change (%, negative = inhibition) at 10uM” value is given as -2.05%.
`CN(CCNC(=O)c1ccc(CS(=O)(=O)c2ccc(Br)cc2)o1)CCc1ccccc1`: the “hERG current change (%, negative = inhibition) at 10uM” value was -77.5%.
The figure for `Cc1ccc(S(=O)(=O)CC(=O)Nc2ncc([N+](=O)[O-])s2)cc1` is 21.8%.
With `NC(=O)CC(NC(=O)Cc1cccc2ccccc12)c1ccc(NC2CCCCCC2)c([N+](=O)[O-])c1` (stereo not drawn), the “hERG current change (%, negative = inhibition) at 10uM” value is given as 6.24%.
For `CCOC(=O)c1ccc(NS(=O)(=O)c2c(N)[nH]c(=O)[nH]c2=O)cc1`, the “hERG current change (%, negative = inhibition) at 10uM” value was 0.427%.
On to `COC(=O)C1=CN(C)C=C(C(=O)OC)C1c1ccccc1Cl`, for which the “hERG current change (%, negative = inhibition) at 10uM” value is 6.5%.
The figure for `COC(Cc1ccccc1N1CCCC1=O)OC` is -2.48%.
Under `CC(=O)Nc1ccc(C(=O)NCC(c2ccco2)N(C)C)cc1` (stereo not drawn) stands 10.1%; under `CC(=O)Nc1ccc(NC(=O)CNC(=O)c2sc3ccccc3c2Cl)cc1`, -0.527%.
For `CCCCC(=O)Nc1ccc(C(=O)NNC(=S)NC(=O)c2ccco2)cc1`, the “hERG current change (%, negative = inhibition) at 10uM” value is 13.5%.
As for `Cc1ccc(NC(=O)/C=C/c2ccco2)nc1`, the “hERG current change (%, negative = inhibition) at 10uM” value is 6.41%.
Under `CCOc1ccc2c(=O)c(Oc3ccccc3OCC)coc2c1` stands -6.31%; under `Cc1n[nH]c(=O)c2c(NC(=O)CSc3ccccc3F)oc(C)c12`, -7.96%.
As for `CC(c1nnc(SCC(=O)Nc2cc([N+](=O)[O-])ccc2F)n1Cc1ccccc1)N(C)C` (stereo not drawn), the “hERG current change (%, negative = inhibition) at 10uM” value is -35.1%.
Under `CC1(C)C(c2ccccc2)=NC(c2ccccc2)N1O` (stereo not drawn) stands -6.51%; under `COc1cccc(N=C2NC(=O)/C(=C/c3cc([N+](=O)[O-])ccc3O)S2)c1`, 12.5%.
The figure for `OCCC1CN(Cc2cccn2-c2cccnc2)CCN1CCc1ccccc1` (stereo not drawn) is -65.2%.
Turning to `CCc1ccccc1NC(=O)CSc1nnc(-c2ccco2)n1N`, the “hERG current change (%, negative = inhibition) at 10uM” value is recorded as 0.385%.
`CCOC(=O)c1cc(-c2nnc(-c3ccc(Oc4ccccc4)cc3)o2)c(C)nc1C`: the “hERG current change (%, negative = inhibition) at 10uM” value was found to be 14.4%.
The figure for `O=C(Nc1cc(Cl)ccc1-n1cncn1)c1ccc(F)c(S(=O)(=O)N2CCOCC2)c1` is -44.6%.
The figure for `CN(CC(=O)Nc1ccc(Cl)cc1)C(=O)c1ccc(N2CCCC2=O)cc1` is -16%; for `Cc1ccccc1OCC(=O)NC(=S)Nc1ccc(N2CCOCC2)c(Cl)c1` it is 15.3%; for `CN1CCN(C(=O)C2CC(=O)N(c3ccc(F)c(Cl)c3)C2)CC1` (stereo not drawn) it is 9.66%.
Consider `Cc1ccc(Nc2nc(-c3c(C)n(C)n(-c4ccccc4)c3=O)c(C)s2)cc1`, for which the “hERG current change (%, negative = inhibition) at 10uM” value was -6.75%.
Consider `COc1cc(/C=N/NC(=O)c2cccnc2)ccc1OS(=O)(=O)c1ccc(C)cc1`, for which the “hERG current change (%, negative = inhibition) at 10uM” value was 8.29%.
For `CCn1c(SCC(=O)N/N=C/C=C/c2ccco2)nnc1-c1ccccc1`, the “hERG current change (%, negative = inhibition) at 10uM” value is recorded as -34.7%.
The figure for `CC(C)C(=O)Nc1ccc(NC(=O)c2ccco2)cn1` is 6.73%.
The figure for `CCOc1c(Br)cc(Br)cc1/C=C1\SC(N)=NC1=O` is 24.2%; for `CN(C)CCN1C(=O)c2oc3ccccc3c(=O)c2C1c1ccc(F)cc1` (stereo not drawn) it is -16.3%.
In the case of `N#CC1=C(N)OC2=C(CCc3ccccc32)C1c1ccccc1` (stereo not drawn), the “hERG current change (%, negative = inhibition) at 10uM” value is 1.76%.
For the compound `Cc1ccc(C(=O)C(=O)c2ccc(C)c(N)c2)cc1N`, the “hERG current change (%, negative = inhibition) at 10uM” value was -9.9%.
For `Nc1nonc1C(=O)N1CCCCC1`, the “hERG current change (%, negative = inhibition) at 10uM” value is 29.7%.
The figure for `CC(C)n1c(N2CCN(C(=O)c3cccs3)CC2)nc2ccccc21` is -49.2%; for `COc1ccc(Cc2nc3ccc(C(=O)NCC4CCOCC4)cc3o2)cc1OC` it is 14.4%.
Consider `CCC(Oc1ccccc1)C(=O)Nc1cc(C)on1` (stereo not drawn), for which the “hERG current change (%, negative = inhibition) at 10uM” value is -8.56%.
